From the supplement of paper PMC10724272
MIC of invasive clinical C. tropicalis isolates, CLSI broth microdilution (fluconazole 0.12-256 mg/L, up to 1,024 for the azole-resistant cluster and its neighbour group; other ranges not stated); higher = less susceptible. Call: susceptible or wild type [S] / resistant or non-wild type [R] by CLSI breakpoints or cut-offs; intermediate and dose-dependent carry no call. '<=' and '>=' at the end values are inferred; the source marks only some of them. Isolates are numbered anew.

Compound: OC(Cn1cncn1)(Cn1cncn1)c1ccc(F)cc1F [fluconazole]
Assay: CLSI broth microdilution.

Row | Test System | MIC
1 | Candida tropicalis isolate 227 (ERG11 copies: 2, Erg11p: no key change) | 2 mg/L [S]
2 | Candida tropicalis isolate 311 (ERG11 copies: 2, Erg11p: Y132F, S154F (homozygous)) | 32 mg/L [R]
3 | Candida tropicalis isolate 444 (ERG11 copies: 2, Erg11p: no key change) | 1 mg/L [S]
4 | Candida tropicalis isolate 60 (ERG11 copies: 2, Erg11p: no key change) | 2 mg/L [S]
5 | Candida tropicalis isolate 421 (ERG11 copies: 2, Erg11p: no key change) | 4 µg/mL
6 | Candida tropicalis isolate 290 (ERG11 copies: 2, Erg11p: no key change) | 2 mg/L [S]
7 | Candida tropicalis isolate 365 (ERG11 copies: 2, Erg11p: no key change) | 2 mg/L [S]
8 | Candida tropicalis isolate 362 (ERG11 copies: 2, Erg11p: no key change) | 2 mg/L [S]
9 | Candida tropicalis isolate 291 (ERG11 copies: 2, Erg11p: no key change) | 0.25 mg/L [S]

Compound: C[C@@H](c1ncncc1F)[C@](O)(Cn1cncn1)c1ccc(F)cc1F [voriconazole]
Assay: CLSI broth microdilution.

Row | Test System | MIC
10 | Candida tropicalis isolate 326 (ERG11 copies: 4, Erg11p: Y132F, S154F (heterozygous)) | ≥ 8 mg/L [R]
11 | Candida tropicalis isolate 75 (ERG11 copies: 2, Erg11p: no key change) | 0.12 mg/L [S]
12 | Candida tropicalis isolate 113 (ERG11 copies: 2, Erg11p: no key change) | ≤ 0.008 mg/L [S]
13 | Candida tropicalis isolate 324 (ERG11 copies: 2, Erg11p: no key change) | 0.03 mg/L [S]
14 | Candida tropicalis isolate 125 (ERG11 copies: 7, Erg11p: Y132F, S154F (heterozygous)) | ≥ 8 mg/L [R]
15 | Candida tropicalis isolate 29 (ERG11 copies: 2, Erg11p: no key change) | 0.25 µg/mL
16 | Candida tropicalis isolate 250 (ERG11 copies: 2, Erg11p: no key change) | 0.12 mg/L [S]
17 | Candida tropicalis isolate 446 (ERG11 copies: 2, Erg11p: no key change) | 0.06 mg/L [S]
18 | Candida tropicalis isolate 132 (ERG11 copies: 10, Erg11p: Y132F, S154F (heterozygous)) | ≥ 8 mg/L [R]
19 | Candida tropicalis isolate 329 (ERG11 copies: 2, Erg11p: no key change) | ≥ 8 mg/L [R]
20 | Candida tropicalis isolate 241 (ERG11 copies: 2, Erg11p: no key change) | ≤ 0.008 mg/L [S]
21 | Candida tropicalis isolate 166 (ERG11 copies: 2, Erg11p: no key change) | 0.12 mg/L [S]
22 | Candida tropicalis isolate 360 (ERG11 copies: 2, Erg11p: no key change) | 0.12 mg/L [S]
23 | Candida tropicalis isolate 194 (ERG11 copies: 8, Erg11p: Y132F, S154F (heterozygous)) | > 8 mg/L [R]
24 | Candida tropicalis isolate 391 (ERG11 copies: 2, Erg11p: Y132F, S154F (homozygous)) | 2 mg/L [R]
25 | Candida tropicalis isolate 170 (ERG11 copies: 2, Erg11p: Y132F, S154F (homozygous)) | > 8 mg/L [R]
26 | Candida tropicalis isolate 313 (ERG11 copies: 2, Erg11p: no key change) | 0.12 mg/L [S]
27 | Candida tropicalis isolate 417 (ERG11 copies: 8, Erg11p: Y132F, S154F, P397S (heterozygous)) | ≥ 8 mg/L [R]

Row | Test System | MIC
28 | Candida tropicalis isolate 49 (ERG11 copies: 2, Erg11p: no key change) | 0.25 µg/mL
29 | Candida tropicalis isolate 58 (ERG11 copies: 2, Erg11p: no key change) | 0.25 µg/mL
30 | Candida tropicalis isolate 264 (ERG11 copies: 2, Erg11p: no key change) | 0.12 mg/L [S]
31 | Candida tropicalis isolate 101 (ERG11 copies: 2, Erg11p: no key change) | ≤ 0.008 mg/L [S]
32 | Candida tropicalis isolate 300 (ERG11 copies: 6, Erg11p: Y132F, S154F (heterozygous)) | ≥ 8 mg/L [R]
33 | Candida tropicalis isolate 79 (ERG11 copies: 2, Erg11p: no key change) | 0.015 mg/L [S]
34 | Candida tropicalis isolate 162 (ERG11 copies: 2, Erg11p: no key change) | 0.25 µg/mL
35 | Candida tropicalis isolate 11 (ERG11 copies: 2, Erg11p: no key change) | 1 mg/L [R]
36 | Candida tropicalis isolate 238 (ERG11 copies: 2, Erg11p: Y257H (homozygous)) | 0.5 µg/mL
37 | Candida tropicalis isolate 227 (ERG11 copies: 2, Erg11p: no key change) | 0.12 mg/L [S]
38 | Candida tropicalis isolate 311 (ERG11 copies: 2, Erg11p: Y132F, S154F (homozygous)) | 2 mg/L [R]
39 | Candida tropicalis isolate 444 (ERG11 copies: 2, Erg11p: no key change) | 0.06 mg/L [S]
40 | Candida tropicalis isolate 60 (ERG11 copies: 2, Erg11p: no key change) | 0.06 mg/L [S]
41 | Candida tropicalis isolate 421 (ERG11 copies: 2, Erg11p: no key change) | 0.25 µg/mL
42 | Candida tropicalis isolate 290 (ERG11 copies: 2, Erg11p: no key change) | 0.5 µg/mL
43 | Candida tropicalis isolate 365 (ERG11 copies: 2, Erg11p: no key change) | 0.12 mg/L [S]
44 | Candida tropicalis isolate 362 (ERG11 copies: 2, Erg11p: no key change) | 0.25 µg/mL
45 | Candida tropicalis isolate 291 (ERG11 copies: 2, Erg11p: no key change) | 0.015 mg/L [S]

Compound: CC[C@H](C)C[C@H](C)CCCCCCCCC(=O)N[C@H]1C[C@@H](O)[C@@H](NCCN)NC(=O)[C@@H]2[C@@H](O)CCN2C(=O)[C@H]([C@H](O)CCN)NC(=O)[C@H]([C@H](O)[C@@H](O)c2ccc(O)cc2)NC(=O)[C@@H]2C[C@@H](O)CN2C(=O)[C@H]([C@@H](C)O)NC1=O [caspofungin]
Assay: CLSI broth microdilution.

Row | Test System | MIC
46 | Candida tropicalis isolate 326 (ERG11 copies: 4, Erg11p: Y132F, S154F (heterozygous)) | 0.06 mg/L [S]
47 | Candida tropicalis isolate 75 (ERG11 copies: 2, Erg11p: no key change) | 0.06 mg/L [S]
48 | Candida tropicalis isolate 113 (ERG11 copies: 2, Erg11p: no key change) | 0.06 mg/L [S]
49 | Candida tropicalis isolate 324 (ERG11 copies: 2, Erg11p: no key change) | 0.03 mg/L [S]
50 | Candida tropicalis isolate 125 (ERG11 copies: 7, Erg11p: Y132F, S154F (heterozygous)) | 0.06 mg/L [S]
51 | Candida tropicalis isolate 29 (ERG11 copies: 2, Erg11p: no key change) | 0.03 mg/L [S]
52 | Candida tropicalis isolate 250 (ERG11 copies: 2, Erg11p: no key change) | 0.06 mg/L [S]
53 | Candida tropicalis isolate 446 (ERG11 copies: 2, Erg11p: no key change) | 0.03 mg/L [S]
54 | Candida tropicalis isolate 132 (ERG11 copies: 10, Erg11p: Y132F, S154F (heterozygous)) | 0.03 mg/L [S]
55 | Candida tropicalis isolate 329 (ERG11 copies: 2, Erg11p: no key change) | 0.25 mg/L [S]
56 | Candida tropicalis isolate 241 (ERG11 copies: 2, Erg11p: no key change) | 0.015 mg/L [S]
57 | Candida tropicalis isolate 166 (ERG11 copies: 2, Erg11p: no key change) | 0.03 mg/L [S]
58 | Candida tropicalis isolate 360 (ERG11 copies: 2, Erg11p: no key change) | 0.03 mg/L [S]
59 | Candida tropicalis isolate 194 (ERG11 copies: 8, Erg11p: Y132F, S154F (heterozygous)) | 0.03 mg/L [S]
60 | Candida tropicalis isolate 391 (ERG11 copies: 2, Erg11p: Y132F, S154F (homozygous)) | 0.03 mg/L [S]
61 | Candida tropicalis isolate 170 (ERG11 copies: 2, Erg11p: Y132F, S154F (homozygous)) | 0.12 mg/L [S]
62 | Candida tropicalis isolate 313 (ERG11 copies: 2, Erg11p: no key change) | 0.03 mg/L [S]
63 | Candida tropicalis isolate 417 (ERG11 copies: 8, Erg11p: Y132F, S154F, P397S (heterozygous)) | 0.06 mg/L [S]

Row | Test System | MIC
64 | Candida tropicalis isolate 49 (ERG11 copies: 2, Erg11p: no key change) | 0.06 mg/L [S]
65 | Candida tropicalis isolate 58 (ERG11 copies: 2, Erg11p: no key change) | 0.06 mg/L [S]
66 | Candida tropicalis isolate 264 (ERG11 copies: 2, Erg11p: no key change) | 0.03 mg/L [S]
67 | Candida tropicalis isolate 101 (ERG11 copies: 2, Erg11p: no key change) | 0.12 mg/L [S]
68 | Candida tropicalis isolate 300 (ERG11 copies: 6, Erg11p: Y132F, S154F (heterozygous)) | 0.03 mg/L [S]
69 | Candida tropicalis isolate 79 (ERG11 copies: 2, Erg11p: no key change) | 0.5 µg/mL
70 | Candida tropicalis isolate 162 (ERG11 copies: 2, Erg11p: no key change) | 0.03 mg/L [S]
71 | Candida tropicalis isolate 11 (ERG11 copies: 2, Erg11p: no key change) | 0.06 mg/L [S]
72 | Candida tropicalis isolate 238 (ERG11 copies: 2, Erg11p: Y257H (homozygous)) | 0.015 mg/L [S]
73 | Candida tropicalis isolate 227 (ERG11 copies: 2, Erg11p: no key change) | 0.06 mg/L [S]
74 | Candida tropicalis isolate 311 (ERG11 copies: 2, Erg11p: Y132F, S154F (homozygous)) | 0.06 mg/L [S]
75 | Candida tropicalis isolate 444 (ERG11 copies: 2, Erg11p: no key change) | 0.06 mg/L [S]
76 | Candida tropicalis isolate 60 (ERG11 copies: 2, Erg11p: no key change) | 0.06 mg/L [S]
77 | Candida tropicalis isolate 421 (ERG11 copies: 2, Erg11p: no key change) | 0.015 mg/L [S]
78 | Candida tropicalis isolate 290 (ERG11 copies: 2, Erg11p: no key change) | 0.03 mg/L [S]
79 | Candida tropicalis isolate 365 (ERG11 copies: 2, Erg11p: no key change) | 0.06 mg/L [S]
80 | Candida tropicalis isolate 362 (ERG11 copies: 2, Erg11p: no key change) | 0.03 mg/L [S]
81 | Candida tropicalis isolate 291 (ERG11 copies: 2, Erg11p: no key change) | 0.03 mg/L [S]
